Test results: US20250376501A1 (JINGYUAN BIOSCIENCES SUZHOU, published 2025)

Biological target: T1, hTSLP recombinant protein (ACROBiosystems, Cat. No. TSP-H52Ha) (human, UniProt Q969D9 29-159)
T1 construct: Bought protein; also called hTSLP protein; hTSLP-his; not shown: His tag
Assay: Gator BLI

T1 sequence (Q969D9 29-159 R127A/R130A limits assumed): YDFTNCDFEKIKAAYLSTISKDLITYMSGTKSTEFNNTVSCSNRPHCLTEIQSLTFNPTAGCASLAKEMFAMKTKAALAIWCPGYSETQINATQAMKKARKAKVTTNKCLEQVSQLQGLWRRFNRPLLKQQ

Kd: 0.582 nM
koff: 0.000365 s⁻¹
kon: 625000 M⁻¹ s⁻¹
B1: G7W1-Fc (Fc fusion)
chain: GSDLGKKLLEAAWAGRDDEVRILMANGADVNAGDASGDTPLHLAAVVGHLEIVEVLLKHGADVNAEDLLGMTPLHLAAPFGHLEIVEVLLKHGADVNAAARNNGKTPLHLAAFVGHLEIVEVLLKNGADVNAQDKFGKTAFDISIDNGNEDLAEILQKLNG[left out - human IgG1 Fc]
